7 molecules from patent US11161864B2, “Sting agonists” (Venenum Biodesign, LLC, priority 2018, dated 2021) can be followed below.

One may read the pEC50 as the EC50 on a negative log10 scale, so that one unit is a factor of ten.

pEC50: −log10 of the molar value. Like-named read-outs stand apart in the source and are kept apart here. A value given as a limit tells only on which side of the number the result lay.

For assay [1], the target named is HAQ STING protein, THP1 Dual (HAQ) human cells (Homo sapiens (Human), UniProt Q86WV6, G230A/H232R/R293Q/R71H).
HAQ STING protein, THP1 Dual (HAQ) human cells, sequence (Q86WV6 whole entry R71H/G230A/H232R/R293Q): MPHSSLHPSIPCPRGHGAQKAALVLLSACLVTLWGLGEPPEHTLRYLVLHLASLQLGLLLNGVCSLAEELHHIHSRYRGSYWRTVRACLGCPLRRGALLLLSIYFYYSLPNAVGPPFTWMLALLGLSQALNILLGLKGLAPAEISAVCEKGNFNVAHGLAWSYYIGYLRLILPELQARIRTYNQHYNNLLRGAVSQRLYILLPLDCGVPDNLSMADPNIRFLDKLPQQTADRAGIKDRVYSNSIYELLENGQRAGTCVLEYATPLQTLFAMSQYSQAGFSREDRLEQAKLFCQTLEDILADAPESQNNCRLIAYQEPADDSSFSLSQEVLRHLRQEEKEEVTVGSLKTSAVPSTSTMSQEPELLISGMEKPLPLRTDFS
Assay [2] concerns STING pathway, RAW-Dual Reporter cell line. In words: cells. As to conditions: for pEC50: read-out: Murine Agonist EC50.
The target in assay [3] is wildtype (WT) STING protein, THP1 Dual (WT) human cells (Homo sapiens (Human), UniProt Q86WV6, H232R).
wildtype (WT) STING protein, THP1 Dual (WT) human cells, sequence (Q86WV6 whole entry H232R): as the sequence (Q86WV6 whole entry R71H/G230A/H232R/R293Q) above, with H71R, A230G, Q293R counted along it

In the case of `Nc1nc2c(ncn2[C@@H]2O[C@@H]3COP(=O)(S)O[C@H]4C[C@H](C4)n4c(nc5cncnc54)COP(=O)(S)O[C@@H]2C3)c(=O)[nH]1` (single isomer, unassigned) [Example 35D], in assay [1] (5 hrs), the “Human HAQ Agonist Efficacy” value is listed as above 100%. For the same molecule, in assay [2] (5 hrs), the “Murine Agonist Efficacy” value was below 100% and the negative-log EC50 (pEC50) was 3.00 to 4.00. The “Human WT Agonist Efficacy” value in assay [3] (5 hrs) was below 100%.

As to `N#Cc1cnc2c(c1)nc1n2CCOP(=O)(S)OC[C@H]2O[C@@H](n3cnc4c(=O)[nH]c(N)nc43)[C@H](OP(=O)(S)OC1)[C@@H]2F` (single isomer, unassigned) [Example 38B], the “Human HAQ Agonist Efficacy” value in assay [1] was above 100%. Besides, in assay [2], the “Murine Agonist Efficacy” value was above 100% and the pEC50 was 4.00 to 5.00. For the same molecule, in assay [3], the “Human WT Agonist Efficacy” value is below 100%.

`N#Cc1cnc2c(c1)nc1n2CCOP(=O)(S)OC[C@H]2O[C@@H](n3cnc4c(=O)[nH]c(N)nc43)[C@H](OP(=O)(S)OC1)[C@@H]2F` (single isomer, unassigned) [Example 38C]: in assay [1], the “Human HAQ Agonist Efficacy” value was above 100%. Further, in assay [2], the “Murine Agonist Efficacy” value is above 100% and the pEC50 is above 5.00. Further, in assay [3], the “Human WT Agonist Efficacy” value is given as above 100%.

For `N#Cc1cnc2c(c1)nc1n2CCOP(=O)(S)OC[C@H]2O[C@@H](n3cnc4c(=O)[nH]c(N)nc43)[C@H](OP(=O)(S)OC1)[C@@H]2F` (single isomer, unassigned) [Example 38D], the “Human HAQ Agonist Efficacy” value in assay [1] is recorded as above 100%. In addition, in assay [2], the “Murine Agonist Efficacy” value is recorded as above 100% and the pEC50 was above 5.00. Besides, the “Human WT Agonist Efficacy” value in assay [3] is recorded as above 100%.

Take `Nc1nc2c(ncn2[C@@H]2O[C@@H]3COP(=O)(S)OCCn4c(nc5c(=O)[nH]cnc54)COP(=O)(S)O[C@@H]2[C@@H]3F)c(=O)[nH]1` (stereo partly drawn) [Example 3D, (1S,21R,23R,24R)-23-(2-Amino-6-oxo-6,9-dihydro-1H-purin-9-yl)-24-fluoro-3,18-disulfanyl-2,4,17,19,22-pentaoxa-7,10,12,14-tetraaza-3lambda5,18lambda5-diphosphatetracyclo[19.2.1.06,14.08,13]tetracosa-6,8(13),11-triene-3,9,18-trione]: in assay [1], the “Human HAQ Agonist Efficacy” value is listed as below 100%. In addition, the “Murine Agonist Efficacy” value in assay [2] (5 hrs) is below 100%. In addition, the “Human WT Agonist Efficacy” value in assay [3] is listed as below 100%.

`O=c1[nH]cnc2c1ncn2[C@@H]1O[C@@H]2COP(=O)(S)OCCn3c(nc4cncnc43)COP(=O)(S)O[C@@H]1[C@@H]2F` (stereo partly drawn) [Example 21B, (1S,21R,23R,24R)-24-Fluoro-23-(6-oxo-6,9-dihydro-1H-purin-9-yl)-3,18-disulfanyl-2,4,17,19,22-pentaoxa-7,10,12,14-tetraaza-3lambda5,8lambda5-diphosphatetracyclo[19.2.1.06,14.08,13]tetracosa-6,8,10,12-tetraene-3,18-dione]: the “Human HAQ Agonist Efficacy” value in assay [1] (5 hrs) is on record as above 100%. Further, in assay [2] (5 hrs), the “Murine Agonist Efficacy” value is listed as above 100% and the pEC50 is 4.00 to 5.00. Further, the “Human WT Agonist Efficacy” value in assay [3] (5 hrs) is below 100%.

As to `O=c1[nH]cnc2c1ncn2[C@@H]1O[C@@H]2COP(=O)(S)OCCn3c(nc4cncnc43)COP(=O)(S)O[C@@H]1[C@@H]2F` (stereo partly drawn) [Example 21C, (1S,21R,23R,24R)-24-Fluoro-23-(6-oxo-6,9-dihydro-1H-purin-9-yl)-3,18-disulfanyl-2,4,17,19,22-pentaoxa-7,10,12,14-tetraaza-3lambda5,8lambda5-diphosphatetracyclo[19.2.1.06,14.08,13]tetracosa-6,8,10,12-tetraene-3,18-dione], the “Human HAQ Agonist Efficacy” value in assay [1] (5 hrs) is given as below 100%. In assay [2] (5 hrs), the “Murine Agonist Efficacy” value is recorded as above 100% and the pEC50 is above 5.00. Besides, the “Human WT Agonist Efficacy” value in assay [3] (5 hrs) is given as below 100%.
